Source: article PMC4336329 (PLoS ONE, 2015)
Screen size: about 310,000 compounds; about 2,200 (0.71%) showed an effect of 50% or more. The effect is printed as a negative number. Some of the results follow.

molecular target: human ether-à-go-go-related gene (hERG) potassium channel (human, UniProt Q12809); experiment: primary screen, population patch clamp on CHO cells stably expressing hERG
Sequence (Q12809 whole entry, looked up): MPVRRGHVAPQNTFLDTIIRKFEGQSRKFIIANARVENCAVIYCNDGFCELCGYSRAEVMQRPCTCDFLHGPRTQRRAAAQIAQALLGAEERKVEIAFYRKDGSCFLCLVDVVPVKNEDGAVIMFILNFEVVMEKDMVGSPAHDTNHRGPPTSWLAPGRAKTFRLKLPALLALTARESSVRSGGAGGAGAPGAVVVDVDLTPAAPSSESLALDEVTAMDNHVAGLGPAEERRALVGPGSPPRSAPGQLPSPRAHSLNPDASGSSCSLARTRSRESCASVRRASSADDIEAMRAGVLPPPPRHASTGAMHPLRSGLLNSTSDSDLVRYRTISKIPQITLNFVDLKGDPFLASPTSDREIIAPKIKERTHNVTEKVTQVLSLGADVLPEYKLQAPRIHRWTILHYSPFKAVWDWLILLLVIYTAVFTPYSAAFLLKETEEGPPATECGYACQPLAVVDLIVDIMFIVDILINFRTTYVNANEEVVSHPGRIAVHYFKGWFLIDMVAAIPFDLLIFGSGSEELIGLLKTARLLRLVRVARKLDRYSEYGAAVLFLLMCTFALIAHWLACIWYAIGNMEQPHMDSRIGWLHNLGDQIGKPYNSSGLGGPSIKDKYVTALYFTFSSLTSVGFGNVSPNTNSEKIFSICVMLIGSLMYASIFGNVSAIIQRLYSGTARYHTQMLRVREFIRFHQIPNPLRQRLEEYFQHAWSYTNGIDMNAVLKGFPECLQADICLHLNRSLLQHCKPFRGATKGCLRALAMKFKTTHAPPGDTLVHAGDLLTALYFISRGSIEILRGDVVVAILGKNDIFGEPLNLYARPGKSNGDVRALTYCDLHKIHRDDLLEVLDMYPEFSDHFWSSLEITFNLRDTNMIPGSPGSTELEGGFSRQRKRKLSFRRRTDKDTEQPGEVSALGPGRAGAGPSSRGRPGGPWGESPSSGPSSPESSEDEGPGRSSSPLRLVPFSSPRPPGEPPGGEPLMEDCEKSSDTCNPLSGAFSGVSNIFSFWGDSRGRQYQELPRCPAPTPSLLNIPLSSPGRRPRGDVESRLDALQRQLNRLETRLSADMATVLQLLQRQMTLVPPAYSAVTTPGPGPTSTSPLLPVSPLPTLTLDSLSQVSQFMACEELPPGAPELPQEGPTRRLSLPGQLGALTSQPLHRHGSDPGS

| SMILES | hERG current change (%, negative = inhibition) at 1uM |
| --- | --- |
| O=C(CNS(=O)(=O)c1ccccc1)Nc1ccc(F)cc1F | -4.93% |
| Nc1nnc(CCS(=O)(=O)c2ccc(Br)cc2)s1 | 4.11% |
| Cc1[nH]c2ccccc2c1C(=O)C(=O)NCCOc1ccccc1 | 10.9% |
| Cc1cccc(S(=O)(=O)NCCNS(=O)(=O)c2cccc(C)c2)c1 | 13.4% |
| Cc1ccc(C)c(/C=N/Nc2nc3ccccc3c(=O)n2O)c1 | 6.1% |
| COc1cccc(NC(=O)CCS(=O)(=O)c2ccc(Br)cc2)c1 | 13.3% |
| O=C(CSc1nc2ccccc2c(=O)n1Cc1ccco1)NCc1ccccc1 | -0.938% |
| COc1cc(Br)cc(-c2nc3c(c(=O)[nH]c(=O)n3Cc3ccccc3)n2C)c1O | 11.9% |
| COc1ccc(-c2nsc3c(N4CCN(C(=O)c5ccco5)CC4)ncnc23)cc1 | 7.36% |
| CCN(CC)c1ccc2cc(C(N)=O)/c(=N\NC(=O)c3ccncc3)oc2c1 | -1.32% |
| COc1ccc(CC(=O)OCc2nnc(C3COc4ccccc4O3)o2)cc1OC (centres unmarked) | 6.32% |
| COc1cc(OC)c(/C=N/n2c(C)nnc2C)c(OC)c1 | 6.13% |
| Cc1noc(C)c1S(=O)(=O)Nc1ccc(C(=O)NC2CCCCC2)cc1 | 13.2% |
| CC(=O)Oc1c(C)c(C)c2c(c1C)CC[C@@](C)(CCC[C@H](C)CCC[C@H](C)CCCC(C)C)O2 | 17.4% |
| O=C(COC(=O)C1(c2cccc(F)c2)CCCC1)NCc1ccc2c(c1)OCO2 | 6.8% |
| Cc1nc2ccn(Cc3ccccc3)c(=O)c2cc1C(=O)N1CCN(c2ccccc2)CC1 | -16.5% |
| CCCOC(=O)C1[C@H]2C(=O)N(Cc3ccco3)C[C@]23C=C[C@H]1O3 (some centres unmarked) | 17.7% |
| O=C(O)CCCCCN1C(=O)C(O)=C(C(=O)/C=C/c2ccccc2)C1c1ccccc1[N+](=O)[O-] (centres unmarked) | 11.8% |
| CCN1CCN(C(c2cc(OC)ccc2OC)c2nnnn2Cc2ccccc2)CC1.Cl (centres unmarked) | -5.39% |
| Cc1c(Cl)c([N+](=O)[O-])nn1CC(=O)NCc1cccs1 | 9.33% |
| CCn1cc(C(=O)NCc2ccc(Cl)cc2)c(=O)c2cc(S(=O)(=O)N(C)C)ccc21 | 10.7% |
| Nc1c(C(=O)c2ccc(Cl)cc2)oc2ccccc12 | 18% |

| SMILES | hERG current change (%, negative = inhibition) at 1uM |
| --- | --- |
| Cn1nccc1NC(=O)COCC(=O)O | 13.5% |
| CCCCn1c2nc3ccccc3nc2c2c(=O)n(C(C)CC)cnc21 (centres unmarked) | -3.76% |
| O=C(Nc1ccccc1N1CCOCC1)c1cccs1 | 7.08% |
| COc1ccccc1N=c1oc2c(OC)cccc2cc1C(=O)NCc1ccco1 | 1.76% |
| Cc1ccc(C)c(N2CCN(S(=O)(=O)c3ccc4c(c3)CC(=O)N4C)CC2)c1 | 16% |
| CC(=O)c1ccc(OC(C)C)c(Cc2c(O)nc(N)[nH]c2=O)c1 | 9.37% |
| Cc1c(C(=O)N2CCCCC2)c(S(=O)(=O)N2CCC(C)CC2)c(C)n1C | 7.34% |
| Cc1c(CCC(=O)N[C@@H](CC(C)C)C(=O)O)c(=O)oc2c(C)c3oc4c(c3cc12)CCCC4 | 6.25% |
| Cc1ccc(NC(=O)C2CCCN2S(=O)(=O)c2ccc(-c3ccc(=O)[nH]n3)s2)c(C)c1 (centres unmarked) | 13% |
| COc1ccc(-c2cc(=O)[nH]c(=S)[nH]2)cc1 | 14.1% |
| Cc1ccccc1NC(=O)c1cccc(C(=O)Nc2ccccc2C)n1 | 10.2% |
| CCN(CC)S(=O)(=O)c1ccc(Cc2ncc(C(F)(F)F)cc2Cl)s1 | 11.1% |
| O=C(Nc1ccccc1)C(=O)Nc1ccc2c(c1)N(C(=O)C1CC1)CCC2 | 3.46% |
| N#Cc1c(NC(=O)Cn2c(=O)oc3ccccc32)oc(-c2ccccc2)c1-c1ccccc1 | 23.8% |
| COCCn1c(NCc2ccco2)nc2c1c(=O)[nH]c(=O)n2C | 21.7% |
| CCCCCCC(C)n1[nH]c(=O)c2c(C)cc(C)nc21 (centres unmarked) | -1.41% |
| CCC(=O)Nc1ccc(C(=O)N/N=C/c2cc(Br)c(OC)cc2OC)cc1 | 14.4% |
| CC(C)Oc1ccc(C(CC(=O)NCCCN(C)C)c2ccc(F)cc2)cc1 (centres unmarked) | -11% |
| CCOc1ccc2ccc(OCC)c(/C=N/n3cnnc3)c2c1 | 0.916% |
| O=C(CSCc1ccc(F)cc1)NCc1ccco1 | 16.4% |
| O=C(NCC1CCCO1)C(=O)NCC(c1ccco1)N1CCN(c2ccccc2F)CC1 (centres unmarked) | 10.8% |
| CC1(C)CC2CC(C)(CN2S(=O)(=O)c2ccc(N)cc2)C1 (centres unmarked) | -10% |

| SMILES | hERG current change (%, negative = inhibition) at 1uM |
| --- | --- |
| O=C(Nc1ccc(Cl)cc1)NC1CCCCNC1=O (centres unmarked) | 8.25% |
| O=C(O)Cc1c[nH]c2ccccc12 | 12.3% |
| COCCOC(=O)C1=C(C)NC(=O)NC1c1c(Cl)nc2c(C)cccn2c1=O (centres unmarked) | 16.5% |
| Cc1ccc2c(CC(=O)Nc3nc(C)cs3)coc2c1 | 10.1% |
| Cc1cc(C)n2nc(SCCOc3ccccc3F)nc2n1 | 2.42% |
| O=C(O[C@H]1[C@H](Cc2ccccc2)NS(=O)(=O)[C@H]2C[C@@H]3C=C[C@]12O3)c1ccc([N+](=O)[O-])cc1 | 8.3% |
| COc1ccc(-c2noc(CN(C)CCC3CCCCO3)n2)cc1 (centres unmarked) | 7.94% |
| CCN(C(=O)CSc1nnc(-c2ccc(OC(F)F)cc2)n1N)C1CCS(=O)(=O)C1 (centres unmarked) | -0.648% |
| O=c1c2ccccc2cnn1Cc1n[nH]c(=S)n1-c1ccc(F)c(Cl)c1 | 8.41% |
| COc1ccc(C2/C(=C(/O)c3ccc4c(c3)CC(C)O4)C(=O)C(=O)N2CCCn2ccnc2)cc1 (centres unmarked) | 13.6% |
| COc1ccc2nc(NC(=O)c3ccccc3-c3ccccc3C(=O)O)sc2c1 | 12% |
| O=C(c1cccc(COc2cccc3ccccc23)c1)N1CCCC1 | 13.9% |
| COc1cccc(C(=O)NCc2ccc(-c3nc4ccccc4s3)cc2)c1 | 18.1% |
| O=C(CC1C(=O)NCCN1C(=O)Nc1ccccc1)Nc1cc(Cl)cc(Cl)c1 (centres unmarked) | 15.4% |
| COc1ccc(-n2nc3c(c2NC(=O)c2ccco2)CS(=O)(=O)C3)cc1 | 6.99% |
| CSc1ccc(C(=O)C2CCCN(C(=O)CN3CCOC3=O)C2)cc1 (centres unmarked) | 8.73% |
| O=C(NCc1ccco1)C1CCC(N2C(=O)c3ccccc3C2=O)CC1 (centres unmarked) | 5.32% |
| Cc1ccc(-c2nnc(SCC(=O)Nc3ccc(N4CCOCC4)cc3)o2)cc1 | 6.18% |
| O=C(Nc1nnc(-c2ccco2)o1)c1cccc2ccccc12 | -2.8% |
| COC(=O)C1CCN(C(=O)C2CCN(C(=O)[C@@H](NS(=O)(=O)c3ccc(C)cc3)C(C)C)CC2)CC1 | 8.23% |
| Cc1ccc(S(=O)(=O)CC(=O)Nc2ccc(S(=O)(=O)Nc3onc(C)c3C)cc2)cc1 | 8.17% |
| O=C(COC(=O)CCc1ccc(S(=O)(=O)N2CCOCC2)cc1)Nc1ccc(Cl)cn1 | -2.33% |

| SMILES | hERG current change (%, negative = inhibition) at 1uM |
| --- | --- |
| COc1ccc2c(c1)nc(SCC(C)O)n2C (centres unmarked) | 11.7% |
| Cc1cc(C)nc(CCNC(=O)CC2C(=O)NCCN2Cc2ccc(F)cc2Cl)n1 (centres unmarked) | 16% |
| CC(C)N(c1ccccc1)c1ccc(NC(=O)C2CCCO2)cc1 (centres unmarked) | 4.59% |
| Cc1ccnc(NC(=O)c2ccc3[nH]c(=O)c(=O)[nH]c3c2)c1 | 10.4% |
| C/C(=N\NC(=O)c1nnn(-c2nonc2N)c1-c1cccs1)c1ccc(O)cc1 | -5.85% |
| CCOC(=O)C1=C(C)N=C2SC(C(=O)OC)=CC(=O)N2C1c1cc(OC)c(OC)c(OC)c1 (centres unmarked) | 10.1% |
| O=C(COc1ccccc1F)N1CCN(S(=O)(=O)/C=C/c2ccccc2)CC1 | 6.47% |
| O=C(Cc1ccc(Cl)cc1)NC1CCS(=O)(=O)C1 (centres unmarked) | -9.77% |
| COC(=O)CNC(=O)C1(C)C=CCN1C(=O)c1ccccc1 (centres unmarked) | 21.8% |
| CCC1Oc2ccccc2N(CC(=O)NCCCN2CCCC2)C1=O (centres unmarked) | 11.3% |
| COc1ccc(/C=C/C(=O)Nc2ccccc2C(=O)NCC(c2ccc(OC)cc2)N(C)C)cc1 (centres unmarked) | 9.87% |
| Cc1ccc(S(=O)(=O)c2c(C)nn(C(C)(C)C)c2OC(=O)CC(C)C)cc1 | 3.64% |
| CCOC(=O)c1c(-c2ccc(OC)cc2)cn2ccccc12 | 3.13% |
| O=C(NCC1CCS(=O)(=O)C1)NCC1CCS(=O)(=O)C1 (centres unmarked) | 12.8% |
| CCOc1ccccc1N(CC(=O)OC)S(C)(=O)=O | 11.4% |
| Nc1nc(Br)c2ccccc2c1-c1ccc(F)cc1 | -4.11% |
| Cc1nnc(NC(=O)c2ccc(C)c(S(=O)(=O)N3CCCCCC3)c2)s1 | 18.4% |
| O=S(=O)(c1ccc(Cl)cc1)N1CCC2(CC1)CO2 | 4.61% |
| Cc1cc(NC(c2ccc(Cl)cc2)c2ccc3cccnc3c2O)no1 (centres unmarked) | 6.49% |
| O=C(c1cn(CC(=O)N2CCCCC2)c2ccccc12)C1CC1 | 17.5% |
